Results from PubChem BioAssay AID504832 (National Center for Advancing Translational Sciences (NCATS), 2011).
Hit rate of the full screen: of about 310,000 compounds, about 18,000 (5.8%) were called active. Inconclusive results, whose numbers are uncertain, are shown with a selection of clear calls. The call rests on the fitted dose curve; in most records, active means well fitted inhibition curve with a large enough effect; inconclusive means small, poorly fitted or top-dose-only effect, or another doubt; inactive means no such curve, though single readings can be large or run the other way. No potency is given beside an inconclusive call; the fits are too rough.

assay: Primary qHTS for delayed death inhibitors of the malarial parasite plastid, 48 hour incubation; conditions: P. falciparum luciferase growth in erythrocytes; series mostly up to 28.7 µM; activity change, negative = inhibition: at the top concentration
How it was run: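 Luminescence readout; reporter = integrated firefly luciferase in P. falciparum. RBC culture at 2% hematocrit, 0.1% parasitemia final, 37 C/5% CO2; decreased signal taken as growth inhibition.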
On the % scale 0 is the no-effect control and ±100 the full control effect; potency means the concentration at half of the fitted maximal effect; tags describe the fitted curve by direction and shape.

For `CCOC(=O)C1CCN(C(=O)COc2ccc3c(C)cc(=O)oc3c2)CC1`, which Potency is on record?
Its Potency is inconclusive [inhibitor, partial curve].

Which “activity change, negative = inhibition” value does the source give for `CC(NC(=O)[C@@H](NC(=O)[C@@H]1Cc2ccccc2CN1)C(C)C)c1ccccc1` (stereo not given in full) here?
The value was inactive: 0.0887%.

With `COc1ccccc1NC(=O)c1cc2c(=O)n(C)c3ccccc3c2n1C` as the molecule, how does the Potency read?
Its Potency is inconclusive [inhibitor, single point].

Which Potency does the source give for `CN1CCN(CCCCOc2ccccc2-c2ccccc2)CC1` here?
Its Potency is inconclusive [inhibitor, partial curve, poor fit].

Which Potency does the source give for `Cc1ccsc1CN(C)C(=O)C(NC(=O)c1cccc(S(=O)(=O)N2CCOCC2)c1)C(C)C` (stereo not given) here?
Its Potency is active: 13.1 µM.

With `Cc1ccc(C)c(NC(=O)Cn2nc([N+](=O)[O-])c(Br)c2C)c1` as the molecule, how does the Potency read?
Its Potency is inconclusive [inhibitor, full curve, poor fit].

With `CCc1cc(=O)oc2c3c(cc(OCC(=O)NCCCC(=O)O)c12)OC(C)(C)CC3` as the molecule, how does the Potency read?
The Potency was inconclusive [inhibitor, partial curve].

With `CCc1ccccc1N(C(=O)c1ccco1)C(C(=O)NC1CCCC1)c1cccnc1` (stereo not given) as the molecule, how does the Potency read?
The Potency was inconclusive [inhibitor, partial curve, poor fit].

Which “activity change, negative = inhibition” value does the source give for `Cc1cc(C)c2c(N)c(C(=O)Nc3ccccc3F)sc2n1` here?
The value was inactive: 141%.

Which “activity change, negative = inhibition” value does the source give for `Cc1ccc(SCc2ccc(C(=O)N3CCCC3)cc2)cc1` here?
The value was inactive: 98.3%.

For `Cc1ccc(C(=O)C2CCN(CC(=O)Nc3ccc4c(c3)OCCO4)CC2)cc1`, which “activity change, negative = inhibition” value is on record?
Its value is inactive: -29.8%.

For `O=C(CCN1CCN(C(=O)c2ccccc2)CC1)c1ccc(Br)cc1`, which Potency is on record?
Its Potency is inconclusive [inhibitor, single point].

For `Fc1cnc(N2CCN(c3ccccc3)CC2)nc1N1CCN(c2ccccc2)CC1`, which Potency is on record?
Its Potency is active: 13.1 µM.

With `COc1cc(C(=O)OCC(=O)Nc2cccc(S(=O)(=O)N3CCCC3)c2)ccc1OCC(C)C` as the molecule, how does the Potency read?
Its Potency is inconclusive [inhibitor, single point].

Which Potency does the source give for `O=C(Nc1ccccc1)C1=C[C@@H](c2ccc(C(F)(F)F)cc2)C[C@@H](OCc2ccc(CO)cc2)O1` here?
The Potency was inconclusive [inhibitor, partial curve].

With `CCOC(=O)Nc1n[nH]c(NC(=O)OCC)c1[N+](=O)[O-]` as the molecule, how does the “activity change, negative = inhibition” value read?
The value was inactive: 2.65%.

For `O=C(NCC(=O)N1CCN(c2ncccn2)CC1)c1ccc(F)cc1`, which “activity change, negative = inhibition” value is on record?
The value was inactive: 98.6%.

With `CC1=NCCc2c1[nH]c1cc(O)ccc21` as the molecule, how does the Potency read?
The Potency was inconclusive [inhibitor, partial curve, poor fit].

With `COC(=O)c1ccc(COc2ccc(-c3nnn(CC(=O)NC(C)(C)C)n3)cc2)cc1` as the molecule, how does the Potency read?
Its Potency is inconclusive [inhibitor, partial curve].

For `O=C(NCc1ccc2c(c1)OCO2)c1ccc(CS(=O)Cc2ccc(Cl)cc2)o1` (stereo not given), which “activity change, negative = inhibition” value is on record?
The value was inactive: 9.83%.

Which Potency does the source give for `CC1=NN(C(N)=S)C(=O)C1N=Nc1ccccc1` (stereo not given) here?
The Potency was inconclusive [inhibitor, single point].

Which Potency does the source give for `Cc1ccc(C)c(C(=O)CN2C3=NCCCN3c3ccccc32)c1` here?
Its Potency is active: 7.38 µM.

For `Cc1ccc(C(=O)NCC(=O)OCn2nnc3ccccc3c2=O)cc1`, which “activity change, negative = inhibition” value is on record?
The value was inactive: 5.79%.

With `CC(NC(=O)NC(=O)c1cccc(Cl)c1)c1ccccc1` (stereo not given) as the molecule, how does the Potency read?
The Potency was inconclusive [inhibitor, single point].

With `CNC(=O)C1CCN(S(=O)(=O)c2c(C)noc2/C=C/c2ccc(C)cc2)CC1` as the molecule, how does the Potency read?
Its Potency is inconclusive [inhibitor, partial curve].

With `Oc1cccc(-n2nnnc2SCc2ccccc2F)c1` as the molecule, how does the Potency read?
Its Potency is inconclusive [inhibitor, single point].

For `COc1cc(C2C(N3C(=O)c4ccccc4C3=O)C(=O)N2c2cccc(C)c2)cc(OC)c1OC` (stereo not given), which “activity change, negative = inhibition” value is on record?
The value was inactive: 3.51%.

With `COCCCN(C(=O)C(C)Oc1ccc(Br)cc1)c1c(N)n(Cc2ccccc2)c(=O)[nH]c1=O` (stereo not given) as the molecule, how does the Potency read?
Its Potency is active: 13.1 µM.

For `O=C1C2CCCN2C(c2cccnc2)N1c1ccc(Cl)c(Cl)c1` (stereo not given), which Potency is on record?
The Potency was inconclusive [inhibitor, single point].

For `COc1ccc(NC(=O)CN(C)C(=O)c2ccc(C)s2)cc1`, which “activity change, negative = inhibition” value is on record?
Its value is inactive: 16.9%.

With `O/C(=C\c1ccc2ccccc2n1)c1ccc(O)cc1O` as the molecule, how does the “activity change, negative = inhibition” value read?
The value was inactive: 365%.

With `CC(C)Sc1nnc([C@@H](N)Cc2ccccc2)o1` as the molecule, how does the “activity change, negative = inhibition” value read?
Its value is inactive: 50.6%.

With `COC(=O)c1c(C)[nH]c(C(=O)OCC(=O)N(CC(C)C)c2c(N)n(Cc3ccccc3)c(=O)[nH]c2=O)c1C` as the molecule, how does the Potency read?
The Potency was inconclusive [inhibitor, single point].

Which Potency does the source give for `CC1CCCCN1Cc1c(O)ccc2c(=O)c(-c3ccc(Cl)cc3Cl)coc12` (stereo not given) here?
Its Potency is inconclusive [inhibitor, single point].

Which “activity change, negative = inhibition” value does the source give for `COc1ccccc1C(=O)NNC1=C(C(=O)C(F)(F)F)CCC1` here?
Its value is inactive: -0.919%.

Which Potency does the source give for `CN1CCSc2ccc(C(=O)NCc3cccc(Br)c3)cc21` here?
The Potency was inconclusive [inhibitor, partial curve, poor fit].

With `O=C(O)C1CC(c2ccccc2)=Nc2ccccc2S1` (stereo not given) as the molecule, how does the Potency read?
Its Potency is inconclusive [inhibitor, single point].

Which Potency does the source give for `Nc1ccc(Cl)c(S(=O)(=O)Nc2cccc(Cl)c2)c1` here?
Its Potency is inconclusive [inhibitor, partial curve, poor fit].

Which Potency does the source give for `CCC1Nc2ncnc(N3CCN(c4ccccc4)CC3)c2N(Cc2ccc(C)cc2)C1=O` (stereo not given) here?
The Potency was inconclusive [inhibitor, single point].

For `CC1CCC(C(C)C)C(OC(=O)COC(=O)c2cccn2C)C1` (stereo not given), which Potency is on record?
Its Potency is inconclusive [inhibitor, partial curve].

For `O=C(O)c1ccccc1CSc1ncccc1C(=O)O`, which “activity change, negative = inhibition” value is on record?
Its value is inactive: 0%.

For `NC(=O)c1nsc(C(=O)N(Cc2ccccc2Cl)C(C(=O)NCC2CCCO2)c2ccc(O)cc2)c1N` (stereo not given), which Potency is on record?
The Potency was inconclusive [inhibitor, single point].

Which Potency does the source give for `O=C(CCl)Nc1ccc(Sc2ccc(NC(=O)CCl)cc2)cc1` here?
The Potency was active: 3.29 µM.

For `CCCS(=O)(=O)N1CCc2ccc(NC(=O)C3CCCO3)cc2C1` (stereo not given), which Potency is on record?
Its Potency is inconclusive [inhibitor, partial curve, poor fit].

Which Potency does the source give for `Cc1cc(=O)oc2c3c(cc(OCC(=O)Nc4ccc(CCO)cc4)c12)OC(C)(C)CC3` here?
The Potency was inconclusive [inhibitor, partial curve, poor fit].
